Measured values taken from PubChem BioAssay AID1159614 (National Center for Advancing Translational Sciences (NCATS), 2016).
In all, about 45,000 compounds went through this assay and about 65 (0.1%) were called active. Calls come from the whole dose curve; as a rule, active = well fitted activation curve with a large enough effect; inconclusive = small, poorly fitted or top-dose-only effect; inactive = no such curve, though single readings can be large or run the other way. Some of the results follow.

These compounds were tested against Galactocerebrosidase (Homo sapiens) (UniProt P54803) (assay: A Novel Cell-Based Assay to Identify Small Molecules for B -Galactocerebrosidase). Conditions: 145M-Twi-hGALC-G270D cells (Twitcher mouse brain line with human GALC G270D), HMU-beta-Gal fluorescence, 48 h; series mostly up to 57.5 µM; activation: at the top concentration.
Method in brief: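 Fluorescence readout: HMU-β-gal cleavage by mutant GALC (0.1 mM final, citrate/phosphate pH 5.2 with 1 mg/mL taurocholate), stopped with carbonate/bicarbonate plus Triton X-100. Cells: murine Twitcher 145M-Twi expressing human G270D GALC; qHTS for activators.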
Note: 0% is about no effect; nearly all actives have a fitted effect of over 65% in size.

Chain of UniProt P54803 (P54803 whole entry, looked up): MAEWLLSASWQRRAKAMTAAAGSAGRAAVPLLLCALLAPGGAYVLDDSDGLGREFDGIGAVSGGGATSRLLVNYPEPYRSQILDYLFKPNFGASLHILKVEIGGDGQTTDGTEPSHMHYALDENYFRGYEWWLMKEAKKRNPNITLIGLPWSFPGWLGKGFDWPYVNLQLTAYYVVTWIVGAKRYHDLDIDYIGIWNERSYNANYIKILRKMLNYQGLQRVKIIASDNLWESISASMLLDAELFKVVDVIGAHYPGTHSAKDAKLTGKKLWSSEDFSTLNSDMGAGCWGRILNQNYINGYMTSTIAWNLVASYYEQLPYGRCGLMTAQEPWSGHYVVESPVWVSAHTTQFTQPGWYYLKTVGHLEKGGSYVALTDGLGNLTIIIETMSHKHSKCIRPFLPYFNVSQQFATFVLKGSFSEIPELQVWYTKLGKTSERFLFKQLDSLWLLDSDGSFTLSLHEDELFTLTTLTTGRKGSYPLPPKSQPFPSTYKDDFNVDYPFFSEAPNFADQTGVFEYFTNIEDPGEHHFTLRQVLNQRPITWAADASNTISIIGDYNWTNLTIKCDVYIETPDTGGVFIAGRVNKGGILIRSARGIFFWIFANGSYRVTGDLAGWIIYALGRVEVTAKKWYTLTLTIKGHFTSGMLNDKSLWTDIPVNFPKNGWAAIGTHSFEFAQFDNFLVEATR

activation, inactive:
COc1cc(-c2nc3ncccn3c2Nc2ccc(C)cc2C)ccc1O -2.03%, O=C(CSc1nc2ccccc2nc1Cc1ccccc1)N1CCCCC1 -10.3%, COc1cc(OC)cc(C(=O)Nc2ccc3c(c2)N(C2CCCC2)C(=O)c2ccccc2S3)c1 -5.38%, O=C(NCc1ccccc1Cl)c1cc2ccccc2o1 -12.8%, CCc1cccc(NC(=O)CCS(=O)(=O)c2cc(Br)cc3c2N(C(C)=O)CC3)c1 -8.83%, COc1cccc(Nc2c3c(nc4nncn24)CCC3)c1 -6.37%, CCOc1ccccc1NC(=O)Cn1cnc2sc(C)c(S(=O)(=O)N3CCC(C)CC3)c2c1=O -17.6%, Cc1cc(C)cc(-n2c(SCC(N)=O)nc3c(oc4ccccc43)c2=O)c1 -13.9%, CCCCOc1cccc(C(=O)Nc2ccc3oc(-c4cccnc4)nc3c2)c1 -5.93%, CCc1ccc(C2CC(=O)Nc3c2c(C)nn3-c2nc(C)cc(C)n2)cc1 (configuration not stated) -12.3%, CCOc1ccc(-c2nnc(SCC(=O)NCc3ccccc3)nc2-c2ccc(OCC)c(OC)c2)cc1OC 0.234%, CCOc1ccccc1NC(=O)N1CCN(Cc2nc3ccc(C)cc3o2)CC1 -6.52%, Cc1ccc(C)c(N2CCN(S(=O)(=O)c3c(C)nc4sccn4c3=O)CC2)c1 -7.96%, CCOC(=O)c1[nH]c(C)c(CCC(=O)NCc2ccccc2C)c1C -0.525%, CCn1cc(S(=O)(=O)c2ccc(C)cc2)c(=O)c2cc(F)c(N3CCCCCC3)cc21 -9.56%, Cn1nc(-c2ccccc2F)c2cc(C(=O)N3CCN(c4ccc(F)cc4)CC3)sc21 -8.84%, CCC(C)NC(=O)Cn1c(=O)n(Cc2ccc(C(=O)NCc3ccccc3OC)cc2)c(=O)c2ccccc21 (configuration not stated) -15.8%, Cc1nn(C(=O)c2cccc(F)c2)c(C)c1S(=O)(=O)N1CCCCCC1 -8.75%, Cc1ccc(NC(=O)CSc2ncnc3c2sc2ccccc23)cc1C -17.6%, CCCN1CCN(CCCNC(=O)Cn2c(-c3cccs3)cc3ccccc32)CC1 -4.93%, CCN(CC)c1nn2c(=O)c(C(=O)NCc3cccc(C)c3)cnc2s1 -0.902%, COc1ccc(Cn2c(SCc3ccc(C(=O)NCCc4ccccc4)cc3)nc3cccnc32)cc1 -19.3%, Cn1c(=O)n(C/C=C/c2ccccc2)c(=O)c2c1nc1n2CCN1c1ccc(Cl)cc1 -5.77%, Cc1cc(C)cc(NS(=O)(=O)c2ccc3[nH]cc(C(=O)N4CCCCCC4)c(=O)c3c2)c1 1.82%, COc1ccc(OC)c(Nc2ncnc3c2cnn3-c2ccc(C)cc2)c1 -8.65%, COc1ccc(-c2noc(CN3CCN(c4cccc(Cl)c4)CC3)n2)cc1 -9.47%, Cc1cccc(N2CCN(S(=O)(=O)c3ccc(F)c(C(=O)Nc4ccc(C(C)C)cc4)c3)CC2)c1C -8.37%, Cc1ccc(C)c(NC(=O)CSc2nc(=O)n(Cc3ccccn3)c3c2CCC3)c1 -12.8%, COCCn1c(C)cc(O)c(C(c2ccc(C)cc2)N2CCCCC2)c1=O (configuration not stated) -1.3%, CC(=O)N1c2ccccc2C(=O)C1N1CCN(c2cccc(C(F)(F)F)c2)CC1 (configuration not stated) -8.53%, CC(=O)N1CCc2cc(Br)cc(S(=O)(=O)N3CCN(c4cc(C)ccc4C)CC3)c21 -4.29%, CCOc1ccc(CC(=O)NC2CC(=O)N(c3ccc(C)c(C)c3)C2)cc1 (configuration not stated) -6.37%, COc1ccccc1N(CC(=O)Nc1ccc(C)c(Cl)c1)S(=O)(=O)c1ccc(C)cc1 -7.64%, C#CC(C)(CC)NC(=O)c1cc2c(n(-c3ccc(Cl)cc3)c1=O)CC(C)(C)CC2=O (configuration not stated) -0.094%, CCN(CC)c1ccc(NC(=O)c2cc(S(=O)(=O)N3CCc4ccccc43)cn2C)c(C)c1 -13.7%, CCN1CCN(c2c(S(=O)(=O)c3ccccc3)cnc3ccc(Cl)cc23)CC1 -13.7%, Cn1cc(-c2cc3n(n2)CCC(=O)N3CC(=O)O)c2ccccc21 -9.56%, OCc1nc2ccccc2n1Cc1c(F)cccc1Cl 1.82%, Cc1ccccc1OCC(=O)N(Cc1ccc(N(C)C)cc1)CC1CCCO1 (configuration not stated) 0.296%, Cc1cccc(CNC(=O)CCCN2C(=O)CCn3nc(-c4cn(C)c5ccccc45)cc32)c1 4.18%, Cc1ccccc1OCC(=O)Nc1ccc2nc(SCC(=O)N(C)c3ccccc3)sc2c1 -24.9%, CC(C)(C)OC(=O)N1CCC(c2c(C(=O)N3CCN(c4ccc(Cl)cc4)CC3)cnn2-c2ccc(F)cc2F)CC1 2.54%, COCCCn1c(=N)c(S(=O)(=O)c2ccccc2)cc2c(=O)n3cc(C)ccc3nc21 -17.4%, COc1cccc(NC(=O)C2CCCN(c3nnc(-n4c(C)ccc4C)s3)C2)c1 (configuration not stated) -13.8%, Cc1ccc(OCC(=O)OCc2cc(=O)n3nc(-c4cccs4)sc3n2)cc1 -15%, COc1ccccc1CNC(=O)CCCn1nc(C)c2sc3ccccc3c2c1=O -0.347%, O=C(c1cc(-c2ccc(Cl)cc2)on1)N(Cc1cccc(F)c1)Cc1ccco1 -15.2%, Cc1ccc(Cn2c(CNS(=O)(=O)c3ccc(C(C)(C)C)cc3)nc3cccnc32)cc1 -3.83%, Cn1c(=O)c2nc(SCC(=O)Nc3cc(Cl)cc(Cl)c3)n(C)c2n(C)c1=O -22.6%, Cc1nc2sccn2c(=O)c1S(=O)(=O)NCc1ccc(F)cc1 -8.09%, CCc1ccc(NC(=O)CSc2c(C)cnc3c2c(=O)n(C)c(=O)n3C)cc1 -7.54%, COc1cc(NC(=O)c2cc(-c3cccs3)on2)c(OC)cc1Cl -15.4%, COc1ccc(CNc2nc(-c3ccco3)nn2C(=O)c2ccccc2Cl)cc1 -13.3%, COc1ccc(Cl)cc1NC(=O)c1cc2ccc3ccc(C)[nH]c3c2n1 -23.5%, Cn1cc(S(=O)(=O)c2ccc(Cl)cc2)c(=O)c2cc(F)c(N3CCCC3)cc21 -11.2%, COc1ccc(NC(=O)C(=O)NCCc2ccc(OC)c(OC)c2)c(OC)c1 -10.4%, O=C(COc1ccccc1Cl)OCc1cc(=O)n2nc(C3CC3)sc2n1 -6.68%, COc1ccccc1CNc1nc2ccccc2c2nc(-c3cccnc3)nn12 -16.1%, COc1ccc(CNC(=O)C2CCN(C(=O)c3ccc(-n4ccc5ccccc54)s3)CC2)cc1 -8.65%, COc1ccc(-c2cc3nc(-c4ccc(Br)cc4)cc(C(F)(F)F)n3n2)cc1 -13.1%, COC(=O)c1ccc(NC(=O)CSc2cn(CC(=O)N3CCCCCC3)c3ccccc23)cc1 -8.39%, COc1ccc(CCNC(=O)c2cccc(-n3c(C)nc4cccnc43)c2)cc1OC -16%
